Reference: PubChem BioAssay (NCATS)
The inconclusive results got no clear call from the source; some entries with a clear call stand among them for comparison. Potencies of inconclusive entries are doubtful fits and often do not repeat. Calls of active or inactive are those of the source. Calls follow the shape of the dose curve; as a rule, active = well fitted inhibition curve with a large enough effect; inconclusive = small, poorly fitted or top-dose-only effect; inactive = flat fitted curve, though single readings scatter.

experiment: BET inhibitor-based combinations targeting novel dependencies in MECOM-rearranged (r) AML: AML-194 cell line (AID 2202237; also: nearly all actives have a fitted effect of over 40% in size;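 as to viability (% of control): plate controls were vehicle wells for no effect and wells without cells for full effect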); details: AML-194 (MECOM-r AML) viability, CellTiter-Glo, 48 h; series mostly up to 46 µM; viability (% of control): at the top concentration
Text: Ecotropic viral insertion site 1 (EVI1) is located on chromosome 3q26.2 as part of the MECOM (MDS and EVI1 complex) locus. Under normal hematopoiesis, EVI1 is a regulator of hematopoietic stem cell maintenance and self-renewal and EVI1 levels decrease as the cells differentiate. In approximately 5-10% of de novo acute myeloid leukemia (AML) EVI1 is aberrantly expressed, including Chromosomal inv(3)(q21;q26.2) or t(3;3)(q21;q26.2) alterations (MECOM-r) that account for about 50% of AML with EVI1 overexpression 31. AMLs with high levels of EVI1 have a poor prognosis and an overall survival time averaging between 10-14 months. EVI1 overexpression confers resistance in leukemia cells, highlighting the need to develop new targeted therapies for EVI1 overexpressing AMLs.
Here, we performed an unbiased chemical drug screening by evaluating the single agent activity of a collection of 2,480 oncology-focused, approved and investigational drugs (NCATS Mechanism Interrogation Plates, MIPE v5.0) against a panel of seven AML cell lines. These included four MECOM-r cell-lines (AML-191, AML-194, UCSD-AML1 and HNT-34) and three non-MECOM-r AMLs (MV4-11, OCI-AML3 and SET-2). Exploiting the mechanistic redundancy built in the library, we identified target-level sensitivities in MECOM-r AML cells and relative activity as compared to other AML subtypes.
A collection of 2480 mechanistically annotated dugs (MIPE v5.0) was used to screen four 3q26.2 rearranged AML cell lines and three non-3q26.2 rearranged AML cell lines. This library purposely exploits redundancy by including multiple inhibitors of key onco-targets, while simultaneously encompassing mechanistic diversity, targeting more than 800 distinct mechanisms of action. Briefly, cells were seeded in 5 uL of growth media using a Multidrop Combi dispenser into 1536 well white polystyrene tissue culture treated plates (Corning) at a density of 500cells/well. For each cell-line, for each of the 2480 drugs in MIPE v5.0 library, an 11-point dose curve was generated via a 1536 pin-tool. Plates were incubated for 48 hr at standard incubator conditions, covered by a stainless steel gasketed lid to prevent evaporation. Cell viability was determined by luminescence based, Cell Titer Glo assay (Promega). In detail, 3 uL of Cell Titer Glo were added to each well and plates were incubated at room temperature for 15 min with a stainless-steel lid in place. Luminescence readings were taken using a Viewlux (PerkinElmer) with a 2 s exposure time per plate. Compound dose-response curves were normalized to DMSO and empty well controls on each plate. Quantitative drug activity data from dose-response curves was determined utilizing area Under the Curve (AUC) and Z-transformed AUC (Z-AUC, a mean-centering transformation applied to each individual cell-line screened).
Potency is read from the fitted curve at half-maximal effect; tags tell the direction and shape of the fitted curve.

Compound | Potency | viability (% of control)
Fc1ccc(C(OCCN2CCN(CCCc3ccccc3)CC2)c2ccc(F)cc2)cc1 | active: 23.5 µM | –
C[C@]12CC[C@H]3[C@@H](CC[C@@]45O[C@@H]4C(O)=C(C#N)C[C@]35C)[C@@H]1CC[C@@H]2O | – | inactive: 103%
Cc1sc2c(c1C)C(c1ccc(Cl)cc1)=NC(CC(N)=O)c1nnc(C)n1-2 (stereo not given) | inconclusive: 0.166 µM [inhibitor, full curve] | –
CC(C)[C@]12O[C@H]1[C@@H]1O[C@@]13[C@@]1(C)CCC4=C(COC4=O)[C@@H]1C[C@@H]1O[C@@]13C2=O | active: 0.332 µM | –
CC(C)[C@H]1C(=O)N[C@H](CO)Cc2c[nH]c3cccc(c23)N1C | inconclusive: 0.323 µM [inhibitor, full curve] | –
Cc1sc2c(c1C)C(c1ccc(Cl)cc1)=N[C@@H](CC(N)=O)c1nnc(C)n1-2 | inconclusive: 0.209 µM [inhibitor, full curve] | –
O=P1(N(CCCl)CCCl)NCCCO1 (stereo not given) | – | inactive: 111%
CC(C)(O)/C=C\C(=O)[C@](C)(O)[C@H]1[C@H](O)C[C@]2(C)[C@@H]3CC=C4[C@@H](C=C(O)C(=O)C4(C)C)[C@]3(C)C(=O)C[C@@]12C | active: 0.417 µM | –
O=c1[nH]c2ccc(Cl)cc2c(N[C@@H]2CN3CCC2CC3)c1-c1nc2ccccc2[nH]1 | active: 0.332 µM | –
Cc1c(C(=O)Nc2cccc(C(F)(F)F)c2)cc(-c2ccccc2)n1CCCN1CCOCC1 | inconclusive: 29.5 µM [inhibitor, partial curve] | –
COc1ccc2c(c[n+](C)c3c4cc5c(cc4ccc23)OCO5)c1OC | inconclusive: 9.34 µM [inhibitor, full curve, poor fit] | –
N#CC(O[C@@H]1O[C@H](CO[C@@H]2O[C@H](CO)[C@@H](O)[C@H](O)[C@H]2O)[C@@H](O)[C@H](O)[C@H]1O)c1ccccc1 (stereo not given in full) | – | inactive: 96.8%
COc1ccc(N(C(=O)Oc2c(C)cccc2C)c2ccnc(Nc3ccc(N4CCN(C)CC4)cc3)n2)c(OC)c1 | – | inactive: 96.4%
C[C@@H]1O[C@@H](O[C@H]2C[C@@H](O)[C@]3(CO)[C@H]4[C@H](O)C[C@]5(C)[C@@H](C6=CC(=O)OC6)CC[C@]5(O)[C@@H]4CC[C@]3(O)C2)[C@H](O)[C@H](O)[C@H]1O | active: 0.0468 µM | –
CO[C@H]1CCC(O[C@H]2C[C@H]([C@]3(C)CC[C@]4(C[C@H](O)[C@@H](C)[C@@H]([C@@H](C)/C=C(\C)C(=O)[C@H](C)C[C@H](C)C(=O)O)O4)O3)O[C@]3(O[C@@H]([C@H]4O[C@@](O)(CO)[C@H](C)C[C@@H]4C)C[C@@H]3C)[C@@H]2C)O[C@@H]1C (stereo not given in full) | active: 0.263 µM | –
CC(=O)N1N=C(c2ccc(N)cc2)c2cc3c(cc2C[C@H]1C)OCO3 | – | inactive: 98.7%
CC[C@@]1(O)C(=O)OCc2c1cc1n(c2=O)Cc2cc3ccccc3nc2-1 | inconclusive: 0.0148 µM [inhibitor, full curve, poor fit] | –
CCN(CC)C(=O)c1ccc(C2=CC3(CCNCC3)Oc3cccc(O)c32)cc1 | – | inactive: 93.8%
C[C@]12Cc3cn[nH]c3C[C@@H]1CC[C@@H]1[C@@H]2CC[C@@]2(C)[C@H]1CC[C@]2(C)O | – | inactive: 106%
O=S(=O)(CC1CS1)c1ccc(Oc2ccccc2)cc1 (stereo not given) | inconclusive: 37.2 µM [inhibitor, single point] | –

Compound | Potency | viability (% of control)
CN(C)[C@@H]1C(=O)C(C(N)=O)=C(O)[C@@]2(O)C(=O)C3=C(O)c4c(O)cccc4[C@@](C)(O)[C@H]3[C@H](O)[C@@H]12 | – | inactive: 108%
Cn1cc(C2=C(c3cn(C4CCN(Cc5ccccn5)CC4)c4ccccc34)C(=O)NC2=O)c2ccccc21 | inconclusive: 9.34 µM [inhibitor, full curve, poor fit] | –
O=C(O)CCCc1ccc(N(CCCl)CCCl)cc1 | inconclusive: 37.2 µM [inhibitor, single point] | –
O=C(CBr)N1CC([N+](=O)[O-])([N+](=O)[O-])C1 | inconclusive: 38.2 µM [inhibitor, single point] | –
CC(N[C@H]1C[C@@H]1c1ccccc1)c1ccc2c(c1)OCCO2 (stereo not given in full) | inconclusive: 0.372 µM [inhibitor, full curve, poor fit] | –
COC1=C[C@@H]2[C@@H]3Cc4ccc(OC)c(O)c4[C@]2(CCN3C)CC1=O | – | inactive: 101%
CN1CCN(c2ccc([N+](=O)[O-])c3no[n+]([O-])c23)CC1 | inconclusive: 18.6 µM [inhibitor, partial curve] | –
COc1cc(C)[nH]c(=O)c1CNC(=O)c1c(C)n([C@H](C)C2CCN(CC(F)(F)F)CC2)c2ccccc12 | – | inactive: 107%
CN1C(=O)CCS(=O)(=O)C1c1ccc(Cl)cc1 (stereo not given) | – | inactive: 102%
C[C@@H]1CC[C@@]2(OC1)O[C@H]1C[C@H]3[C@@H]4CC=C5C[C@@H](O[C@@H]6O[C@H](CO)[C@@H](O[C@@H]7O[C@@H](C)[C@H](O)[C@@H](O)[C@H]7O)[C@H](O)[C@H]6O[C@@H]6O[C@@H](C)[C@H](O)[C@@H](O)[C@H]6O)CC[C@]5(C)[C@H]4CC[C@]3(C)[C@H]1[C@@H]2C | active: 8.33 µM | –
CN1[C@H]2CC(O)C[C@H]1[C@H]1O[C@H]12 (stereo not given in full) | – | inactive: 122%
CC1(C)C(=O)N(c2ccc(C#N)c(C(F)(F)F)c2)C(=S)N1Cc1ccc(-c2cn[nH]n2)cc1 | active: 20.9 µM | –
CNC(=O)c1ccc(N2C(=S)N(c3ccc(C#N)c(C(F)(F)F)c3)C(=O)C23CCC3)cc1F | – | inactive: 96.2%
Cn1c(/C=C/CO)c(CO)c2c1C(=O)C=C(N1CC1)C2=O | – | inactive: 114%
O=C(NCC1CCOCC1)c1cnc(Nc2ccc(Cl)cc2Cl)nc1C(F)(F)F | – | inactive: 103%
C[C@]12CCC(=O)C(O)=C1CC[C@@H]1[C@@H]2CC[C@]2(C)C(=O)CC[C@@H]12 | – | inactive: 107% [at 92.2 µM]
COc1ccc(C(=O)c2c(C)n(CCN3CCOCC3)c3cc(I)ccc23)cc1 | active: 9.34 µM | –
C[C@H](Nc1ncnc2nc[nH]c12)c1nc2ccc(F)cc2c(=O)n1-c1ccccc1 | inconclusive: 6.61 µM [inhibitor, partial curve] | –
C[C@@]12OC(=O)[C@]1([C@@H](O)[C@@H]1C=CCCC1)NC(=O)[C@@H]2CCCl | inconclusive: 0.0525 µM [inhibitor, full curve, poor fit] | –
O=C(N[C@@H](COc1ccc2[nH]c(=O)[nH]c2c1)c1ccccc1)c1cccn(Cc2ccc(F)c(F)c2)c1=O | inconclusive: 20.9 µM [inhibitor, single point] | –
